# Measurements: PubChem BioAssay AID488969 (Vanderbilt High Throughput Screening Facility, 2010)
# Over roughly 110,000 compounds, “z-score” has its median near -0.1; the highest 2% begin near 2. This is one part of the list. The source made the active and inactive calls.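 Rule for the calls: active = z-score in the third read window above 3 or below -3; inactive = the rest.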
# Target: Metabotropic glutamate receptor 8 (Rattus norvegicus) (UniProt P70579)
# Assay: rat mGluR8 modulators via GIRK flux, primary screen, cell-based, thallium flux, HTS (AID 488969)
# Conditions: HEK293 rat mGluR8, GIRK (G protein-gated inwardly rectifying potassium channel) thallium flux, FluoZin2; at 10 µM; stronger effect = higher value; submaximal glutamate (EC20) added with thallium
# UniProt P70579, sequence (P70579 whole entry, looked up): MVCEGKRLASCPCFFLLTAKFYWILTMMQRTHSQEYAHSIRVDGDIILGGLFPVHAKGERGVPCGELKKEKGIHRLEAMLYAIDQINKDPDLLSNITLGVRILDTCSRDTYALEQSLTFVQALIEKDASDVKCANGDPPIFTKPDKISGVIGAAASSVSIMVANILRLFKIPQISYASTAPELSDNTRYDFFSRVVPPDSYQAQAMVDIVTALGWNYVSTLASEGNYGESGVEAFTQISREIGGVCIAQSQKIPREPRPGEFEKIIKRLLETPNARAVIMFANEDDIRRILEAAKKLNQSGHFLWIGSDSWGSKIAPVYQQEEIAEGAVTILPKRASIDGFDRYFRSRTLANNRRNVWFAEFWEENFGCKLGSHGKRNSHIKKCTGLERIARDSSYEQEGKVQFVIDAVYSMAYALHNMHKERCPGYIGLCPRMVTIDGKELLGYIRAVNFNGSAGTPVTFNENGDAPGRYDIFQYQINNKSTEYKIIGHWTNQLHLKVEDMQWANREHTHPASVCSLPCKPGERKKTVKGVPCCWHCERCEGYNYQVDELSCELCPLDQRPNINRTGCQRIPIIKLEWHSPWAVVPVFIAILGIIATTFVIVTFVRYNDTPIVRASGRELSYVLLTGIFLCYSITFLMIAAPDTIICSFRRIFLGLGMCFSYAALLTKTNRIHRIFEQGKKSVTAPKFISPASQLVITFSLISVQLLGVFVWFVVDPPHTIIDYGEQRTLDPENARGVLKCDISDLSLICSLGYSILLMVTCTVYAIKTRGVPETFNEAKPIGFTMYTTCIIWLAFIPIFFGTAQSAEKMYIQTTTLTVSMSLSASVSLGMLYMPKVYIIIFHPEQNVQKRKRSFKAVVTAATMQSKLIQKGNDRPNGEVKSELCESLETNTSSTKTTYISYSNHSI
row,Structure (SMILES),z-score
1,CCOC(=O)c1nc(N)c(C(=O)OCC)[nH]1,-0.0439
2,CCCSc1nnc2nc(C)cc(C)n12,-0.0915
3,CCCCn1c(SCC(=O)Nc2ccc(OC)cc2)nc2ccc(N3CCOCC3)cc2c1=O,active: 4.35
4,CCN(CCO)Cc1cn[nH]c1-c1ccc(C)c(C)c1,0.132
5,O=C(Cn1cnc([N+](=O)[O-])n1)N/N=C/c1ccccc1O,0.165
6,C/C(=N\Oc1cccc(F)n1)c1ccc(Cl)cc1Cl,0.444
7,CCOC(=O)Nc1sc(C(=O)N(CC)CC)c(C)c1C(=O)OCC,-0.929
8,Cn1c(NC(=O)c2ccccc2NC(=O)C(C)(C)C)nc2ccccc21,-0.0885
9,Cc1cc(C2(c3cc(C)c(NC(=O)CN4CCOCC4)c(C)c3)CCCCC2)cc(C)c1NC(=O)CN1CCOCC1,-0.355
10,Cc1ccc(-c2csc3ncnc(N4CCc5ccccc5C4)c23)cc1,-0.0151
11,O=C(CN1CCCC1)NCC1(c2ccccc2)CCOCC1,0.204
12,COC(=O)c1ccc(NC2=CC(=O)CC(C)(C)C2)cc1,-0.507
13,CC(C)(C)C(=O)Nc1nc(-c2ccc3c(c2)OCO3)cs1,1.07
14,Cc1cc2c(cc(C(=O)OCC(=O)NCc3ccco3)n2C)s1,-0.152
15,CC(=O)Oc1ccc(N(C(C)=O)S(=O)(=O)c2ccc(C)c([N+](=O)[O-])c2)cc1,-0.139
16,Cc1cc2c(ncn2Cc2ccccc2)c(NS(C)(=O)=O)c1C,-0.0689
17,O=C(Cn1nc(-c2ccc(Cl)cc2)ccc1=O)N1CCN(c2ccccc2)CC1,-0.575
18,COc1ccc(NC(=O)COC(=O)C2CCC(C(C)(C)C)CC2)c([N+](=O)[O-])c1 (stereo not given),-0.247
19,O=C(COc1ccccc1)NNC(=O)c1cc2ccccc2o1,0.0131
20,COc1cc(CNCCN2CCOCC2)ccc1OCc1cccc(Cl)c1,0.787
21,Cc1cc(C)n(CC(=O)N/N=C/c2ccccn2)n1,0.402
22,CCCCCC1CC(CC(=O)NC(=S)Nc2ccc([N+](=O)[O-])cc2)C(=O)O1 (stereo not given),0.0803
23,c1ccc(CN2CCN(CCCNc3ccc4nnc(-c5ccccc5)n4n3)CC2)cc1,-1.07
24,CCOCCCNC(=O)C1CCC(CNS(=O)(=O)c2ccc(Cl)cc2)CC1 (stereo not given),-0.125
25,COc1ccccc1NC(=O)C1CC(=O)OC1c1ccccc1 (stereo not given),-0.583
26,COc1ccccc1-n1c(SCC(=O)Nc2cccc(C)c2)nc2c(c1=O)SCC2,-0.782
27,C/C(=N/NS(=O)(=O)c1ccc(Br)cc1)c1ccc(C)o1,-0.221
28,Cc1ccc(Oc2ccc(-c3nnc(-c4ccccc4)o3)cc2[N+](=O)[O-])cc1C,0.687

row,Structure (SMILES),z-score
1,CC(=O)c1c(O)cc(=O)n(-c2ccccc2)c1-c1cccc2ccccc12,0.0673
2,Fc1c(F)c(F)c(N=Cc2ccc3ncccc3c2)c(F)c1F,0.201
3,Cc1sc2ncnc(NCc3ccco3)c2c1C,-0.47
4,O=Cc1cn(CCC(=O)O)nc1-c1cc2ccccc2o1,-0.983
5,Cc1ccc2nc3sc(-c4nnc(-c5ccccc5[N+](=O)[O-])o4)c(N)c3cc2c1,-0.0604
6,Clc1cccc(-c2nn3c(Cn4cnc5ccccc54)nnc3s2)c1,-0.175
7,N#C/C(=C/c1ccc(N2CCOCC2)o1)c1ccc(Cl)cc1,-0.0165
8,Cc1ccc(Cn2c(SCC(N)=O)nc3c2c(=O)n(C)c(=O)n3C)cc1,-0.328
9,CCn1nnnc1SCC(=O)c1ccc2c(c1)OCCO2,-0.178
10,O=C(O)CN1CCCC1=Nc1ccccc1,0.264
11,Nc1ccccc1C(=O)Nc1cccc(C(=O)O)c1,0.0345
12,C=CCNC(=S)Nc1nc2c(cc1C(=O)OCC)CCCC2,active: 7.76
13,COc1cccc(Cn2nnc(C(=O)Nc3cc(C)ccc3OC)c2N)c1,0.346
14,CS(=O)(=O)N(CC(=O)N1CCN(c2ccccc2F)CC1)C1CCCCC1,-0.161
15,Cc1ccc(-c2ccc(/C=N/NC(=S)Nc3ccccc3)o2)cc1[N+](=O)[O-],0.442
16,Cc1ccc(C2SCCN2C(=O)c2ccc([N+](=O)[O-])cc2)cc1 (stereo not given),-0.218
17,CCCCn1cnc2cc(NCc3ccncc3)ccc21,0.202
18,COC(=O)c1ccccc1CON1C(=O)C(C)(C)N(OCc2ccccc2C(=O)OC)C(=O)C1(C)C,-0.348
19,CC1CCN(c2c([N+](=O)[O-])c(=O)n(-c3ccccc3)c3ccccc23)CC1,0.00884
20,Clc1cccc(Cl)c1Cn1cnc2c(NCc3ccco3)ncnc21,-0.832
21,Cc1cccc(C)c1NC(=O)N1CCC(n2c(=O)[nH]c3ccccc32)CC1,-0.23
22,COCC(C)NCc1ccc(C)cc1C (stereo not given),0.0777
23,COc1ccc(C)cc1NC(=O)C(Sc1nnc(Nc2ccccc2F)s1)c1ccccc1 (stereo not given),0.0396
24,CC(=O)Nc1ccc(SCC(=O)Nc2ccccc2-c2ccccc2)cc1,-0.153
25,CC(=O)c1cccc(NC(=O)CN(Cc2ccccc2)S(C)(=O)=O)c1,0.318
26,CCCCOc1cccc(NC(=O)CSc2nccn2C)c1,-0.276
27,COc1cc2c(cc1OC)C1=C(C#N)CCC(=NC(=O)c3ccc(Cl)cc3)N1CC2,-0.8
